Test results reported in PubChem BioAssay AID588579 (National Center for Advancing Translational Sciences (NCATS), 2011).
Among all 400,000 compounds or so, about 2,200 (0.55%) were called active. Inconclusive results, whose numbers are uncertain, are shown with a selection of clear calls. Calls come from the whole dose curve; as a rule, active = well fitted inhibition curve with a large enough effect; inconclusive = small, poorly fitted or top-dose-only effect, or another doubt; inactive = no such curve, though single readings can be large or run the other way. A potency beside an inconclusive call is a rough fit, not a confirmed value.

Molecular target: DNA polymerase kappa (Homo sapiens) (UniProt Q9UBT6)
Chain of UniProt Q9UBT6 (Q9UBT6 whole entry, looked up): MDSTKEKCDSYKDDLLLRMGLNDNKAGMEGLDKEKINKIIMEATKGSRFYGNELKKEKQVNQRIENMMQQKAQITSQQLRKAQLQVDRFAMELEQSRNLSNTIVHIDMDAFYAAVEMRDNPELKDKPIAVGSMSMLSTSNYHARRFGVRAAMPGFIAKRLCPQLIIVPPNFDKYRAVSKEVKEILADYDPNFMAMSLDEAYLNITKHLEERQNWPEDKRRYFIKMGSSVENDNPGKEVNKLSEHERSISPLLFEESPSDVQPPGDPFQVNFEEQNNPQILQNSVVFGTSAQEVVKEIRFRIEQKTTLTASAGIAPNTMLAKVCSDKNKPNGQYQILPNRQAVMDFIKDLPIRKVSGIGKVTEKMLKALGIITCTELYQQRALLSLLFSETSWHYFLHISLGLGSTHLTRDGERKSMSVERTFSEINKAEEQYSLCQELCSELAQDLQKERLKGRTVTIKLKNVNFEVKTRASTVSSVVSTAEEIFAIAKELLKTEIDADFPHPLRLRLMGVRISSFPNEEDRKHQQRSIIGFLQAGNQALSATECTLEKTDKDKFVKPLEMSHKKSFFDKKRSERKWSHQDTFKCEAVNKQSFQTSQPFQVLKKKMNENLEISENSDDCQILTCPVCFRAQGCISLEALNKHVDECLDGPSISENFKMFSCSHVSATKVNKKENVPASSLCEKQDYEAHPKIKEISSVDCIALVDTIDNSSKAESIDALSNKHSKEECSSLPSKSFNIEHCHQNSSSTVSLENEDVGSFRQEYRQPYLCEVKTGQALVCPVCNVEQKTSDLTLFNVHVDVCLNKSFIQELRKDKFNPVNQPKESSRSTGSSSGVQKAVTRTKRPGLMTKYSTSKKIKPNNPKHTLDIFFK
Experiment: qHTS for Inhibitors of Polymerase Kappa
Settings: purified Pol kappa, fluorescent DNA synthesis assay, 10 min; series mostly up to 107 µM; activity, negative = inhibition: at the top concentration
How it was run: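 Activity was followed as the change in fluorescence between reads at 0 and 10 min after starting the reaction with 50 nM substrate. Beforehand, 10 nM polymerase had been preincubated with compound for 15 min at room temperature.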
% is set by controls: 0 for no effect and ±100 for the full control effect; potency is the fitted concentration of half-maximal effect; tags give direction and shape of the fitted curve.

Compound | Potency | activity, negative = inhibition
COc1ccc(NC(=O)c2nc(S(=O)(=O)Cc3ccc(C)cc3)ncc2Cl)cc1 | inconclusive: 100 µM [inhibitor, single point] | –
O=C(Nc1ccc2nc(-c3ccco3)c(-c3ccco3)nc2c1)NC1CC1 | active: 10 µM | –
CN(C)c1ccc(/C=C2\C(=N)N3N=C(CC(=O)N4CCCC4)SC3=NC2=O)cc1Br | inconclusive: 89.1 µM [inhibitor, single point] | –
C=C1c2cccc(OC)c2O[C@H](C(=O)OCC)[C@@H]1CC(CC)CCCC (some centres not stated) | inconclusive: 50.1 µM [inhibitor, partial curve, poor fit] | –
C=C(/C=C/c1ccc(N(C)C)cc1)c1nc2ccccc2s1 | inconclusive: 63.1 µM [inhibitor, partial curve, poor fit] | –
O=C(COc1ccc(Cl)cc1Cl)c1ccc[nH]1 | inconclusive: 20 µM [inhibitor, partial curve, poor fit] | –
O=Cc1cc(N=Nc2ccccc2Cl)ccc1O | inconclusive: 79.4 µM [inhibitor, partial curve, poor fit] | –
CSc1nnc(SCc2nc3sc(C(=O)O)c(C)c3c(=O)[nH]2)s1 | active: 25.1 µM | –
Cc1cc(S(=O)(=O)Nc2nc(CN3CCOCC3)nc3sc4c(c23)CCC4)cc(C)c1C | inconclusive: 89.1 µM [inhibitor, single point] | –
COc1ccc(C(=O)Nc2ccc(-c3cc(C(F)(F)F)nn3-c3ccccc3)cc2)cc1OC | – | inactive: -9.9% [at 60.1 µM]
O=C1Cc2cc(S(=O)(=O)N3CCCCC3)ccc2N1 | – | inactive: -5.86%
Cn1ncc(N=Cc2ccccc2)c1C(N)=O | – | inactive: -10%
O=[N+]([O-])c1ccc(C[n+]2cccc3ccc4cccnc4c32)cc1 | – | inactive: 3.42%
COc1ccc(OC)c(C(C(=O)NC2CCCCC2)N(Cc2ccco2)C(=O)c2ccccn2)c1 (configuration not stated) | inconclusive: 100 µM [inhibitor, single point] | –
CCN(C(=O)/C=C/c1ccc(OC)cc1)C1CCCCC1 | inconclusive: 89.1 µM [inhibitor, single point] | –
NC(C(=O)N[C@@H]1C(=O)N2C(C(=O)O)=C(Cl)CS[C@H]12)c1ccccc1 (some centres not stated) | – | inactive: -7.08% [at 60.1 µM]
COc1cc(C2CC(=O)Nc3cc4c(cc32)OCCO4)cc(OC)c1O (configuration not stated) | – | inactive: -19.8%
O=C(O)/C(=C\c1ccc(-c2ccc(F)cc2)o1)c1ccccc1 | inconclusive: 89.1 µM [inhibitor, single point] | –
Cc1cc(O)c(C(=O)/C=C/c2cccc([N+](=O)[O-])c2)c(=O)o1 | inconclusive: 100 µM [inhibitor, single point] | –
COc1ccc(OC)c(NC(=O)COC(=O)c2cc3c(s2)CCC3)c1 | active: 12.6 µM | –
O=C(N/N=C\c1ccc(OC(=O)c2cccs2)cc1)c1ccc(Cl)cc1 | – | inactive: -7.39%
CC(C)Cn1c(N)c(C(=O)COC(=O)C2Cc3ccccc3CN2S(C)(=O)=O)c(=O)n(C)c1=O (configuration not stated) | inconclusive: 100 µM [inhibitor, single point] | –
CSc1ccc(C=NNc2ccc(S(=O)(=O)Nc3ccccc3C(=O)O)cc2[N+](=O)[O-])cc1 | inconclusive: 89.1 µM [inhibitor, single point] | –
CC1C=CC(C)C(C(=O)O)C1C(=O)O (configuration not stated) | active: 39.8 µM | –

Compound | Potency | activity, negative = inhibition
Cc1cc(C(C)(C)C)c(O)c(C)c1CC1=NCCN1 | inconclusive: 12.6 µM [inhibitor, single point] | –
c1cncc(CNc2nc(-c3ccoc3)nc3ccccc23)c1 | inconclusive: 35.5 µM [inhibitor, partial curve] | –
C=CCN1C(=Nc2ccccc2)SC/C1=C\C(=O)OC | inconclusive: 89.1 µM [inhibitor, single point] | –
CCC(=O)Nc1cccc(-c2nc3ccccc3o2)c1 | – | inactive: 6.36%
COC(=O)CSc1ccc2nnc(CCNS(=O)(=O)c3ccccc3)n2n1 | inconclusive: 89.1 µM [inhibitor, single point] | –
O=C(COC(=O)c1ccc([N+](=O)[O-])o1)Nc1ccc2c(c1)OCO2 | – | inactive: -19.9%
COc1ccc(-n2c(=O)c(C)nc3cnc(Oc4ccccc4)nc32)cc1 | – | inactive: 1.03% [at 60.1 µM]
Cn1c(=O)c(S(=O)C2CCCCC2)c(O)c2ccccc21 (configuration not stated) | – | inactive: -5.11%
COc1cc2cc(Oc3ccc4ccc(=O)oc4c3)c(=O)oc2cc1O | inconclusive: 0.355 µM [inhibitor, partial curve, poor fit] | –
O=C(CSc1ccc(-c2ccco2)nn1)Nc1ccccc1F | – | inactive: -43.1%
Cc1ccccc1NC(=S)NC(=O)/C=C/c1ccco1 | inconclusive: 31.6 µM [inhibitor, full curve, poor fit] | –
CC(C)CC(C(=O)Nc1oc(-c2ccco2)c(-c2ccco2)c1C#N)N1C(=O)c2ccccc2C1=O (configuration not stated) | inconclusive: 89.1 µM [inhibitor, partial curve, poor fit] | –
COc1cccc(CNC(=O)c2ccc3c(c2)nc2n3CCC(C)C2)c1OC (configuration not stated) | – | inactive: -16.1% [at 60.1 µM]
O=C1/C(=C/c2ccco2)SC(=S)N1C1CCS(=O)(=O)C1 (configuration not stated) | inconclusive: 79.4 µM [inhibitor, partial curve, poor fit] | –
Cc1csc(=O)n1CCC(=O)OCC(=O)Nc1ncc(Cl)cc1Cl | inconclusive: 100 µM [inhibitor, single point] | –
COc1ccccc1NC(=O)c1cc(S(=O)(=O)NCCC2=CCCCC2)ccc1F | – | inactive: -12.1% [at 60.1 µM]
O=C(NCc1cccc(Cl)c1)C1CCCN(c2ncnc3onc(-c4ccc(F)cc4)c23)C1 (configuration not stated) | – | inactive: -11.9%
CC(=O)Nc1nonc1-c1nc2ccccc2n1Cc1ccccc1Br | – | inactive: -15.9%
COc1ccccc1NC(=O)COC(=O)c1ccc(S(=O)(=O)NCc2ccco2)cc1 | inconclusive: 89.1 µM [inhibitor, single point] | –
CCOC(=O)NC1(NC2CCCCC2)Oc2ccccc2O1 | active: 79.4 µM | –
O=c1c(-c2c(O)cc(O)c3c(=O)cc(-c4ccc(O)cc4)oc23)c(-c2ccc(O)cc2)oc2cc(O)cc(O)c12 | active: 35.5 µM | –
Cc1cc(/C=C2\SC(=O)N(CC(=O)Nc3ccccc3F)C2=O)c(C)n1C | – | inactive: 0.748%
COc1ccc(CCNC(=O)Cn2cc(C(=O)c3ccc(F)cc3)c(=O)c3ccc(C)nc32)cc1OC | inconclusive: 100 µM [inhibitor, partial curve, poor fit] | –
